# In publication PMC4336329 (PLoS ONE, 2015):
# In all, about 310,000 compounds went through this assay and about 2,200 (0.71%) showed an effect of 50% or more. The effect is printed as a negative number. Some of the results follow.
# Target: human ether-à-go-go-related gene (hERG) potassium channel (human, UniProt Q12809)
# Assay: primary screen, population patch clamp on CHO cells stably expressing hERG
# Sequence of human ether-à-go-go-related gene (hERG) potassium channel (Q12809 whole entry, looked up): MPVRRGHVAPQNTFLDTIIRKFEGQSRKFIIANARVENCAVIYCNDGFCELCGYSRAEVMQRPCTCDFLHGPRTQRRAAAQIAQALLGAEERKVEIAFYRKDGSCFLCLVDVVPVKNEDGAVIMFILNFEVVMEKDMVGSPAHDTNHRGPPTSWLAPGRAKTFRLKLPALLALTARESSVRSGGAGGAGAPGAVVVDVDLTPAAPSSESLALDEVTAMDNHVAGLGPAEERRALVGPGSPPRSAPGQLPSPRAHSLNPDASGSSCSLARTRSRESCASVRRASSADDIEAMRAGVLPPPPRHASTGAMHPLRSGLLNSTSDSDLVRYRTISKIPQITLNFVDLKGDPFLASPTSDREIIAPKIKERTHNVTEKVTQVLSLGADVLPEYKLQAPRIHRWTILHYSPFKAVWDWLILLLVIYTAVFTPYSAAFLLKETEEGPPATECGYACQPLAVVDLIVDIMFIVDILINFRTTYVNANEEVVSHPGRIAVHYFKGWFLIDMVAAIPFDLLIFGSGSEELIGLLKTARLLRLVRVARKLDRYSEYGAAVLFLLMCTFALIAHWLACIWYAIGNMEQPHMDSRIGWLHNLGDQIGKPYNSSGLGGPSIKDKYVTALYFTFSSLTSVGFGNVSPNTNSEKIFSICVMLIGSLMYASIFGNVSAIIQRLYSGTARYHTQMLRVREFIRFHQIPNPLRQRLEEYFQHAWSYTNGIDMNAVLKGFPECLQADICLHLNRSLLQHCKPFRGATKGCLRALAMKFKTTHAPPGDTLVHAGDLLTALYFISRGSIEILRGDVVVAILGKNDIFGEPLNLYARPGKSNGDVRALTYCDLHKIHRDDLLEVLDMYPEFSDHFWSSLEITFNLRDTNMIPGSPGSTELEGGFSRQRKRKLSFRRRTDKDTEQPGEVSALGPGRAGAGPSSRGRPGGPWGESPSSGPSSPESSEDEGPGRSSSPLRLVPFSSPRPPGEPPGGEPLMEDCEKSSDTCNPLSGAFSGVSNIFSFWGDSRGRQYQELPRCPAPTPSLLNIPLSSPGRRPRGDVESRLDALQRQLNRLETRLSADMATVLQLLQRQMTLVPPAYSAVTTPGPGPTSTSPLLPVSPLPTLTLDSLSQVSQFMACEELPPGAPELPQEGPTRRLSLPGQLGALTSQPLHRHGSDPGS
row,Structure (SMILES),"hERG current change (%, negative = inhibition) at 1uM [%]"
1,CC1(C)CC(=O)C(C=NCCN2CCNC2=O)=C(O)C1,19.4
2,O=C(COc1cccc(F)c1)N1c2ccccc2Sc2ccccc21,11.9
3,CC(C)(C)n1nc2c(c1NC(=O)c1ccc(F)c(F)c1)CS(=O)(=O)C2,15.2
4,COc1ccc(C(=O)Nc2cc3c(cc2C(=O)O)OCCCO3)c(OC)c1,-10.4
5,Clc1cccc(Cl)c1Cn1cnc(=NCc2ccco2)c2[nH]cnc21,-5.86
6,CCCC(=O)Nc1ccc(C(=O)n2nnc3ccccc32)cc1,23.4
7,O=C(NCc1ccccc1Cl)c1ccc(Cn2cc(C(F)(F)F)ccc2=O)cc1,5.6
8,Cc1ccc(NC(=O)c2ccc(-c3nn(C)c(=O)c4ccccc34)cc2)cc1,-2.18
9,CCc1nc2ccccc2c(C(=O)OCC(=O)NCc2ccc3c(c2)OCO3)c1C,4.96
10,CC(C)NC(=O)c1ccc(-n2c(=S)[nH]c3ccccc3c2=O)cc1,11.2
11,O=C(CCN1C(=O)COc2ccccc21)NCc1cccnc1,8.98
12,COc1ccc(OC)c(-c2cc(C(=O)NCCCn3ccnc3)no2)c1,7.77
13,CCOc1ccccc1CNC(=O)CCNS(=O)(=O)c1ccc2[nH]c(=O)oc2c1,1.86
14,COc1ccc(C(=O)Nc2ccc(N3CCN(C)CC3)cc2)cc1[N+](=O)[O-],-0.837
15,O=C(COCc1nc2ccccc2c(=O)[nH]1)NC1CCCC1,7.8
16,COc1cc(OC)cc(-c2nc(-c3ccccc3OC)no2)c1,-3.34
17,COc1cccc(CNC(=O)CCN2C(=S)NC(C)(C)CC2C)c1 (stereo not shown),4.5
18,CC(C)OC12Oc3ccccc3C=C1N1CCC2CC1 (stereo not shown),9.88
19,CCCOc1ccc(C(=O)NCC(c2cccs2)N(C)C)cc1OC (stereo not shown),-11.4
20,CC(OC(=O)/C=C/c1cccc(C(F)(F)F)c1)C(=O)NC1CCCCC1C (stereo not shown),15
21,CCN(CC)CCN(Cc1cc2cc3c(cc2[nH]c1=O)OCCO3)C(=S)NCC1CCCO1 (stereo not shown),11.6
22,C=CCn1c(C)cc(C(=O)CSc2nnc(Cc3ccccc3)o2)c1C,14.6

row,Structure (SMILES),"hERG current change (%, negative = inhibition) at 1uM [%]"
1,Cc1ccc2oc(=O)c3cc(C(=O)NCCCN4CCCCCC4)sc3c2c1,1.74
2,O=C(NC(=S)NCCc1ccccc1)C1CCCCC1,8.1
3,Cc1nn(-c2ccc(F)cc2)c(C)c1CN1CCN(CCc2ccccc2)C(CCO)C1 (stereo not shown),-35.1
4,O=C(NCc1ccc2c(c1)OCO2)c1ccc(S(=O)(=O)N2CCOCC2)cc1,11.9
5,Cc1nc(-c2ccccc2)sc1-c1ccnn1C,9.15
6,CC(C)CC(=O)NC(=S)Nc1ccccn1,15.9
7,Cc1ccc(S(=O)(=O)Nc2c(C)n(C)n(-c3ccccc3)c2=O)cc1C(=O)OC(C)C(=O)N(C)c1ccccc1 (stereo not shown),9.72
8,Cc1cccc(CN2CCC(n3nccc3NC(=O)CCCc3ccccc3)CC2)n1,-8
9,CC1(C)C2CCC1(CS(=O)(=O)Nc1ccc(S(=O)(=O)N3CCCCC3)cc1)C(=O)C2 (stereo not shown),2.98
10,NC(=O)c1sc2cc(C(F)(F)F)cnc2c1-c1ccccc1,16.4
11,CCCCc1ccc(Nc2ncccc2C#N)cc1,11.8
12,O=C(Nc1nnc(COc2ccccc2F)s1)Nc1ccccc1F,15.3
13,CC(=O)C(Cc1ccc(Cl)nc1)(Cc1ccc(Cl)nc1)C(C)=O,7.21
14,COc1ccc(/C=N/NC(=O)C(O)(c2ccccc2)c2ccccc2)cc1OC,8.47
15,OC(COc1ccc(F)cc1Cl)CN1CCC(Cc2ccccc2)CC1 (stereo not shown),-81.4
16,CCOP(=O)(OCC)C(NC(=O)c1cccc2ccccc12)C(Cl)(Cl)Cl (stereo not shown),2.91
17,CC(=O)NCCOc1ccc(C(=O)O)cc1,6.2
18,CN(C)c1ccc(/C=N/NC(=O)c2ccn(C)n2)cc1,9.92
19,O=C(CCc1ccccc1)Oc1ccccc1[N+](=O)[O-],13.8
20,CN1C(=S)SC(N(O)C(=O)Nc2cccc3ccccc23)C1(C)C (stereo not shown),8.43
21,Cc1ccc(-n2c(Cc3cccs3)nnc2SCC(=O)Nc2ccc(F)c(F)c2)cc1,1.22
22,CC1(C)CC(NC(=O)Cc2ccccc2[N+](=O)[O-])CC(C)(C)N1,0.436

row,Structure (SMILES),"hERG current change (%, negative = inhibition) at 1uM [%]"
1,C=C(C)c1cccc(C(C)(C)NC(=O)NCCN(CC)CC)c1,3.08
2,COc1ccc2oc3cc(C)[n+]([O-])c(-c4ccc(Br)cc4)c3c2c1,4.46
3,Cc1cccc(/C=N/NC(=O)c2ccc(NC(=O)c3cccc(Cl)c3)cc2)n1,10.4
4,COc1ccc(OC)c(C(C[N+](=O)[O-])c2c(C)cc3ccccn23)c1 (stereo not shown),10.5
5,Cc1ccc(C(C)C)c(OCC(O)CN2CC(C)OC(C)C2)c1.Cl (stereo not shown),1.47
6,COc1ccc2[nH]c(=O)c(CN(Cc3nnnn3CCc3ccccc3)CC3CCCO3)cc2c1 (stereo not shown),-10.9
7,CN(C)CCCOC(=O)c1ccccc1Cl.Cl,6.21
8,O=C(CSc1nc2[nH]ncc2c(=O)n1-c1ccccc1)NCc1cccs1,12.3
9,CCCc1c2ccccc2nc2ccccc12,-1.03
10,C=C(C)c1cccc(C(C)(C)NC(=O)Nc2ccc(OC)cc2)c1,3.56
11,COc1cc(OC)cc(-n2nnnc2SCC(=O)Nc2nc3c(s2)CCCC3)c1,1.53
12,O=C(Nc1nc(-c2cccnc2)cs1)c1ccccc1Cl,5.49
13,COc1ccc(/C=N/n2c(C)nc3sc(C)c(C)c3c2=O)cc1,16.9
14,COc1ccc(N=C2SC(C(N)=O)CC(=O)N2CCc2ccc(OC)c(OC)c2)cc1 (stereo not shown),9.57
15,OCC#CCSc1nnc(-c2ccncc2)o1,4.32
16,COc1ccc(CCNC(=O)CN(c2ccc(C)cc2)S(=O)(=O)c2c(C)noc2C)cc1OC,8.22
17,CCOC(=O)/C(C#N)=C(\O)c1ccc(NC(=O)c2ccc([N+](=O)[O-])cc2)cc1,12.5
18,COc1ccccc1/C=C1/SC(=S)N(CCC(=O)Nc2cccnc2)C1=O,7.75
19,CCCCN(CCCC)CCNC(=O)CSCc1ccc(C)cc1.O=C(O)C(=O)O,-16
20,O=C(Nc1ccccc1Cl)c1csc(-c2cccnc2)n1,8.38
21,COc1ccc(F)cc1C(=O)COC(=O)c1n[nH]c(=O)c2ccccc12,0.151
22,CSc1nc2ccccc2cc1/C=C(\C#N)c1cccc(Cl)c1,17.3

row,Structure (SMILES),"hERG current change (%, negative = inhibition) at 1uM [%]"
1,OCCNc1cc(Cl)ncn1,11.2
2,CCCCCCSc1ccc(-c2nc3ccc(C)cn3c2NC2CCCCC2)cc1.O=C(O)C(F)(F)F,11.6
3,COc1ccccc1C(=O)NNC(=O)C(=O)NCc1ccccc1,7.74
4,Cc1ccc(C)c(S(=O)(=O)c2c(N)n(/N=C/c3ccco3)c3nc4ccccc4nc23)c1,11
5,CSC1=C(C#N)C(c2ccccc2)C(C(C)=O)=C(C)N1 (stereo not shown),10.6
6,COc1ccc(C2C(C(=O)c3cccs3)=C(O)C(=O)N2c2cccc(C)n2)cc1OC (stereo not shown),-0.155
7,Cc1cccc(C)c1OCC(=O)N/N=C/c1cc2c(cc1[N+](=O)[O-])OCO2,8.05
8,COc1ccc(NC(=O)c2ccc(-c3nn(C)c(=O)c4ccccc34)cc2)cc1C(N)=O,9.21
9,COc1ccc(S(=O)(=O)N2CC(=O)Nc3ccccc32)cc1C,14.3
10,CC1CCC(NC(=O)Cn2cnc3sccc3c2=O)CC1 (stereo not shown),3.74
11,O=C(CNS(=O)(=O)c1ccccc1)OCC(=O)c1ccc([N+](=O)[O-])cc1,10.4
12,Cc1c(Cl)cccc1Nc1nc(N)nc(CSC(=S)N2CCOCC2)n1,8.31
13,CCC(CC)C(=O)Nc1cccc(C(=O)NCc2ccco2)c1,3.84
14,c1ccc(CNc2ncnc3nc[nH]c23)nc1,7.8
15,COCCNC(=O)c1c[nH]c2cc(OC)c(OC)cc2c1=O,11.9
16,CS(=O)(=O)N(CC(=O)N1CCCCCC1)c1cccc(F)c1,12.1
17,Cc1cccc(NC(=O)C2CCCN(S(=O)(=O)c3cccc4cccnc34)C2)c1 (stereo not shown),-6.3
18,O=C(CCCn1c(SCc2ccccc2F)nc2ccccc2c1=O)NCC1CCCO1 (stereo not shown),8.02
19,COc1ccc(-c2cn[nH]c2-c2ccc(OCc3ccc(F)cc3)cc2O)cc1OC,9.68
20,Cc1ccc(N2C(=O)c3ccc(C(=O)NCCN4CCOCC4)cc3C2=O)cc1,1.76
21,CCc1nc(SCC(=O)NC2CCCC2)c2oc3ccccc3c2n1,16.4
22,Cc1ccccc1NC(=S)NC(=O)c1cc(-c2ccccc2)nc2ccccc12,16.4
